# Measurements from PubChem BioAssay AID588855 (National Center for Advancing Translational Sciences (NCATS), 2011).
# Hit rate of the full screen: of about 410,000 compounds, about 5,000 (1.2%) were called active. This list was built around the results that the source calls inconclusive (neither active nor inactive); the mix of calls is not that of the screen. Calls follow the shape of the dose curve; as a rule, active = well fitted inhibition curve with a large enough effect; inconclusive = small, poorly fitted or top-dose-only effect; inactive = no such curve, though single readings can be large or run the other way. Potencies of inconclusive entries are doubtful fits and often do not repeat. More than one record can exist for a structure, and the calls need not agree.
# Assay: qHTS for Inhibitors of TGF-b; also: nearly all actives have a fitted effect of over 65% in size
# Details: HepG2 CAGA-GFP TGF-b/SMAD3 reporter, GFP fluorescence, 18 h, TGF-beta stimulated, 500 pg/mL final; series mostly up to 46.1 µM
# Outline: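 Smad-responsive CAGA-GFP expression was quantified in HEPG2 cells exposed to compounds and 500 pg/mL final TGF-beta for 18 h at 37 degrees C; unstimulated wells defined full inhibition.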
# Potency is read from the fitted curve at half-maximal effect; tags tell the direction and shape of the fitted curve.
row,SMILES,Potency
1,CC(C)(C)OC(=O)N1CCC(c2c(C(=O)N3CCCCC3)cnn2-c2ccc(F)cc2F)CC1,"inconclusive: 0.282 µM [inhibitor, full curve, poor fit]"
2,COc1ccc2c(C)cc(SCC(=O)Nc3cc(C(N)=O)cc(C(N)=O)c3)nc2c1,"inconclusive: 35.5 µM [inhibitor, single point]"
3,O=c1[nH]c(/C=C/c2cccc3ccccc23)nc2ccccc12,inactive
4,COc1ccc2c(c1)OC[C@H]1[C@H]2N2C(=O)c3cc(Cl)ccc3NC(=O)[C@@]2(C)[C@H]1c1ccccc1,inactive
5,c1ccc(NC2=NCCN2CC2CCCCCC2)cc1,"inconclusive: 3.98 µM [inhibitor, single point]"
6,CCOC(=O)N1CCC(NC(=O)c2ccc(CS(=O)c3cccc(C)c3)o2)CC1 (stereo not drawn),inactive
7,Cc1ccc(C)c(NC(=O)Cn2c(=O)n(Cc3ccc4c(c3)OCO4)c(=O)c3ccccc32)c1,inactive
8,O=[N+]([O-])c1cc([N+](=O)[O-])c(N2CCOCC2)cc1NCc1ccccc1,"inconclusive: 35.5 µM [inhibitor, single point]"
9,CCOC(=O)Cc1ccc(Nc2nc3cc(-c4ccccc4C)sc3c(=O)n2C)cc1,"inconclusive: 17.8 µM [inhibitor, single point]"
10,COc1ccc(-c2[nH]c(-c3ccc4c(c3)OCO4)nc2-c2ccccc2)cc1,"inconclusive: 35.5 µM [inhibitor, single point]"
11,Oc1cccc2ccc[n+](CC(O)Cn3c4ccccc4c4ccccc43)c12 (stereo not drawn),"inconclusive: 12.6 µM [inhibitor, partial curve, poor fit]"
12,FC(F)(F)c1nnc2c(Sc3ccccc3)nc3ccc(Cl)cc3n12,inactive
13,COc1cccc(Nc2sc(C(=O)c3ccc(Cl)cc3)c(N)c2C(=O)NCCc2ccc(OC)c(OC)c2)c1,"inconclusive: 11.2 µM [inhibitor, partial curve, poor fit]"
14,Oc1ccc(N=Nc2ccc3c(c2)OCCO3)c2ncccc12,"inconclusive: 2.24 µM [inhibitor, full curve, poor fit]"
15,Cc1ccc(CN2C(=O)C(CC(C)C)Nc3ncnc(N4CCCCC4)c32)cc1 (stereo not drawn),"inconclusive: 22.4 µM [inhibitor, single point]"
16,CCCN(Cc1cccs1)C(=O)Nc1ccc(F)c(Cl)c1,"inconclusive: 12.6 µM [inhibitor, partial curve]"
17,COc1ccc(OC)c(Nc2c3c(nc4ccccc24)CCC3)c1,active: 11.2 µM
18,O=C(c1ccc2c(c1)N(Cc1ccccc1)CCS2)N1CCCCC1,"inconclusive: 11.2 µM [inhibitor, partial curve, poor fit]"
